Test results taken from PubChem BioAssay AID1768 (National Center for Advancing Translational Sciences (NCATS), 2009).
In all, about 270,000 compounds went through this assay and about 620 (0.23%) were called active. Inconclusive results, whose numbers are uncertain, are shown with a selection of clear calls. Calls come from the whole dose curve; as a rule, active = well fitted inhibition curve with a large enough effect in the polarisation, with a control signal flat (not every such curve was filed as active); inconclusive = small, poorly fitted or top-dose-only effect, or effect the other way, or a change in a side signal; inactive = no such curve, though single readings can be large or run the other way; the % refers to the polarisation. Potencies beside an inconclusive call are fits to weak or partial responses and may not hold up. “Side channel” marks fits to a control or component signal instead of the main read-out.

target: Menin (Homo sapiens) (UniProt O00255); assay: qHTS Assay for Inhibitors Targeting the Menin-MLL Interaction in MLL Related Leukemias: Competition With Texas Red Labeled MLL-derived Mutant Peptide; conditions: fluorescence polarization; series mostly up to 61.6 µM
Potency is the fitted concentration of half-maximal effect; tags give direction and shape of the fitted curve or compound fluorescence and quenching.

Chain of UniProt O00255 (O00255 whole entry, looked up): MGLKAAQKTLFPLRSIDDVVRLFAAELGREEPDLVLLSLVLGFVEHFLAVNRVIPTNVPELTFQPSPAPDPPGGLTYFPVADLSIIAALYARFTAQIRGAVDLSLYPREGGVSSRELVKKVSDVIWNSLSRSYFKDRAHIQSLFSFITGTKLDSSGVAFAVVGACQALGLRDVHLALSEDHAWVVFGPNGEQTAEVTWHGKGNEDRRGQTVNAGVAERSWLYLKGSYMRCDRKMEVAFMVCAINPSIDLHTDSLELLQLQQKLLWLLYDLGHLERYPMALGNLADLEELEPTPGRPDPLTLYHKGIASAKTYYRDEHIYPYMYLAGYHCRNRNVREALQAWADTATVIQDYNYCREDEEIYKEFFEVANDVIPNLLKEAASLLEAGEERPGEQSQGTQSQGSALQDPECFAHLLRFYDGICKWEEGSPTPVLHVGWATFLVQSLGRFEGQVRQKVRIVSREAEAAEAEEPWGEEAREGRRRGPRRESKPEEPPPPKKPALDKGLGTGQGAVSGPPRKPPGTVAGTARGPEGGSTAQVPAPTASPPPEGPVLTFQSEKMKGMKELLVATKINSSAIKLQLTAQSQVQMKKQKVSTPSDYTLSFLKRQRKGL

Potency, inconclusive:
CCN(CC)c1ccc(NC(=O)c2cc3c(OC)cccc3[nH]2)cc1 20 µM [quencher, side channel, partial curve]
CC1=NOC(=O)/C1=C\c1ccc(-c2ccc(Br)cc2)o1 17.8 µM [quencher, side channel, partial curve]
CC1(CC(=O)N/N=C/c2ccc(OCc3ccc(Cl)cc3Cl)cc2)OCCCO1 1.41 µM [fluorescent, side channel, full curve, poor fit]
Cc1nnc(NCc2ccccc2)c2ccccc12 2.82 µM [inhibitor, full curve]
C/C(CC(=O)Nc1cc(Cl)ccc1C)=N\NC(=O)C(=O)N1CCCC1 25.1 µM [quencher, side channel, single point]
C/C(=N\NC(=O)CCc1c[nH]c2ccccc12)c1ccc([N+](=O)[O-])cc1 39.8 µM [quencher, side channel, single point]
COc1ccc(OC)c(Nc2nc(-c3sc(NC(=O)CC(C)C)nc3C)cs2)c1 10 µM [quencher, side channel, partial curve]
CC(C)(C)OC(=O)N[C@@H](Cc1ccccc1)c1nnc(S(=O)(=O)Cc2ccccc2)o1 20 µM [fluorescent, side channel, partial curve]
COc1cc(/C=C2\SC(=S)N(Nc3ccccc3)C2=O)ccc1O 6.31 µM [fluorescent, side channel, partial curve]
CC1(OC(=O)c2cccs2)C(=O)C=C2C=C(c3ccc(C#N)cc3)OC=C2C1=O (stereo unspecified) 31.6 µM [quencher, side channel, single point]
Cc1noc(/C=C/c2ccc(-c3ccccc3Cl)o2)c1[N+](=O)[O-] 39.8 µM [inhibitor, single point]
CN(C)c1ccc(/C=C/c2ccc3ccccc3n2)cc1 28.2 µM [quencher, side channel, partial curve]
O=C1c2cccc3cccc(c23)C(=O)N1CC1CCN(CC(O)COc2ccc3ccccc3c2)CC1 (stereo unspecified) 31.6 µM [quencher, side channel, single point]
CC(=O)c1ccc(OCCCC(=O)NC2CCCCC2C)cc1 (stereo unspecified) 3.16 µM [inhibitor, single point]
COc1ccc(-c2csc(Nc3ccc(S(N)(=O)=O)cc3)n2)cc1 10 µM [quencher, side channel, partial curve]
O=C(Nc1cccc(F)c1)c1ccc(S(=O)(=O)NCC2CCCO2)cc1 (stereo unspecified) 31.6 µM [quencher, side channel, single point]
COc1cc2c(cc1NC(=S)Nc1cccc(C(F)(F)F)c1)oc1ccccc12 28.2 µM [quencher, side channel, partial curve]
COc1cccc(C(c2nnnn2Cc2ccccc2)N2CCN(C(=O)c3ccco3)CC2)c1OC (stereo unspecified) 39.8 µM [inhibitor, single point]
CCC(CC)C(=O)Nc1cccc(C(=O)Nc2ccc(S(=O)(=O)Nc3ccc(C)cc3)cc2)c1 35.5 µM [inhibitor, single point]
CCN1C(=O)c2cccc3c(NC(=O)c4ccc5c(c4)OCCO5)ccc1c23 8.91 µM [inhibitor, partial curve]
O=C(Cc1cccs1)Nc1cccc(-c2nnc(-c3ccco3)o2)c1 31.6 µM [quencher, side channel, single point]
COc1cccc(-c2nc(NCCN3CCOCC3)c3ccccc3n2)c1O 25.1 µM [quencher, side channel, partial curve]
O=C(Nc1nnc(-c2ccc(F)cc2)o1)c1cccc([N+](=O)[O-])c1 20 µM [quencher, side channel, partial curve]
CCc1ccc(-c2cc(C(=O)Nn3cnnc3)c3ccccc3n2)cc1 35.5 µM [quencher, side channel, single point]
COc1ccc(C(CNC(=O)CSc2ccccc2C)N(C)C)cc1 (stereo unspecified) 2.82 µM [inhibitor, partial curve]
Cc1ccc2nc(SC(C(=O)Nc3ccc(F)cc3)c3ccccc3)[nH]c2c1 (stereo unspecified) 39.8 µM [inhibitor, single point]
CCCCCn1c(=O)[nH]c2cc(C(=O)NCCN3CCC(C)CC3)ccc2c1=O 12.6 µM [inhibitor, partial curve]
CCc1cc(C(=O)N/N=C/c2c(C)[nH]c3ccccc23)cs1 17.8 µM [quencher, side channel, partial curve]
CCN1CCN(CCOc2ccc(Cl)cc2)CC1 35.5 µM [fluorescent, side channel, single point]
COc1ccc(N2CC(C(=O)Nc3nc4ccc(S(C)(=O)=O)cc4s3)CC2=O)cc1 (stereo unspecified) 20 µM [quencher, side channel, partial curve]
Cc1ccc(NC(=O)CCC(=O)NNC(=O)COc2cccc3ccccc23)c(C)c1 39.8 µM [fluorescent, side channel, single point]
CCc1ccc(Nc2nnc(SCC(=O)NC(=O)c3cccn3C)s2)cc1 28.2 µM [quencher, side channel, single point]
COc1c(F)c(F)c(C(=O)O)c(Nc2ccc(C)cc2C)c1F 28.2 µM [quencher, side channel, partial curve]
COc1ccc([N+](=O)[O-])cc1-c1[nH]c(-c2ccc(C(=O)O)cc2)nc1-c1ccccc1 12.6 µM [quencher, side channel, partial curve]
Cc1ccccc1NC(=O)/C(C#N)=C\c1cn(CC(=O)O)c2ccccc12 28.2 µM [quencher, side channel, single point]
CCN(Cc1ccccc1)C(=O)c1cc2c(OC)c(OC)c(OC)cc2[nH]1 3.98 µM [fluorescent, side channel, partial curve]
CC(NC(=O)C1CCC(CNC(=O)[C@@H]2Cc3ccccc3CN2)CC1)c1ccccc1 (stereo partly specified) 10 µM [inhibitor, partial curve]
O=C(c1ccccc1)c1ccc(OCCn2cnc3ccccc3c2=O)cc1 8.91 µM [inhibitor, full curve, poor fit]
Cc1ccc(Nc2c(F)c(F)c(F)c(F)c2C(=O)O)c(C)c1 31.6 µM [quencher, side channel, single point]
Cc1ccc(C(=O)Nc2ccccc2C(=O)O)cc1S(=O)(=O)Nc1ccccc1 39.8 µM [quencher, side channel, single point]
COc1cccc(C(=O)N2CCN(Cc3ccccc3C(F)(F)F)CC2)c1 10 µM [fluorescent, side channel, partial curve]
CCC1=NN(C(=O)C(=O)Nc2ccc(OC)cc2)C(O)(C(F)(F)F)C1 (stereo unspecified) 10 µM [inhibitor, full curve]
COc1cc(SSc2cc(OC)cc([N+](=O)[O-])c2N)c(N)c([N+](=O)[O-])c1 10 µM [quencher, side channel, partial curve]
CCCC[C@H](CN[C@@H](CNC)[C@H](C)CC)NCCC12CCC(CC1)C2 7.94 µM [inhibitor, partial curve]
Cc1ccc(Nc2cc(C)c(O)c(C)c2)cc1 25.1 µM [quencher, side channel, partial curve]
O=C(c1ccco1)N(Cc1cccc([N+](=O)[O-])c1)c1ccc(Br)cc1 10 µM [fluorescent, side channel, partial curve]
CCOc1ccc2nc(Nc3nc4ccc(NC(C)=O)cc4s3)sc2c1 12.6 µM [quencher, side channel, partial curve]
COCCNC(=S)NC(=O)c1ccc(C(C)(C)C)cc1 25.1 µM [fluorescent, side channel, single point]
CCOC(=O)N1CCN(C(=O)CN(Cc2ccc(Cl)cc2)S(=O)(=O)c2ccc(C)cc2)CC1 4.47 µM [fluorescent, side channel, full curve]

Potency, inactive:
Cc1cc[n+](-c2ccccc2)c2ccccc12
O=C(O)CC(=O)NC12CC3CC(CC(C3)C1)C2
c1cn(-c2cc(-c3ccc4c(c3)OCO4)ncn2)cn1
CC(=O)O[C@@H]1CC[C@@]2(C)[C@H](C1)[C@H](OC(C)=O)C[C@@H]1[C@@H]2C[C@H]2[C@@H]3CN4C[C@H](C)CC[C@H]4[C@H](C)[C@H]3CC[C@@]12O
O=C(Nc1ccccc1N1CCN(C(=O)c2ccccc2)CC1)c1cc(Br)ccc1Cl
COCC(=O)N(Cc1cc2cc(OC)ccc2[nH]c1=O)c1ccc(C)cc1
COc1ccc(C(=O)Nn2c(SCC(=O)NC3CCCCC3)nc3ccccc3c2=O)cc1
